Laboratory results taken from the RNAGym collection of RNA variant scans (doi:10.7554/elife.90254).
Read counts are not given, so values of variants with three or more changes are uncertain.

B1: LINE1-mini (parent)
chain: GGCAGAGCUCAACACAGCGUGGCAAAGUGGCUGUGGCUAGACUGCC

Variants of: B1
Assay: self-cleavage, relative activity (ratio to wild type); higher = more cleavage; in vitro, sequencing; the parent is a self-cleaving ribozyme

Variant	self-cleavage
GGCAGAGCUCAACACAGGGUGGCAAUGUGACUGUGGCUAGACUGCC [C18G A26U G30A]	1.99
GGCAGAGCUCAACACAGAGUCGCAAAGUGGAUGUGGCUAGACUGCC [C18A G21C C31A]	0.07
GGCAGAGCUCAACACAUCGUGGCAAAGAGGAUGUAGCUAGACUGCC [G17U U28A C31A G35A]	0.12
GGCAGAGCUCAACACAGAGUGGCAAAGUGGCUGUGCCUAGCCUGCC [C18A G36C A41C]	0.02
GGCAGAGCUCAACACAUCGUGGCAAAGUGGCUCGGGCUAGACUGCC [G17U G33C U34G]	0.03
GGCAGAGCUCAACACAGAGUGGCAAAGUUGUUGUGGCUAGACCGCC [C18A G29U C31U U43C]	0.02
GGCAGAGCUCAACACAUCGUGGCAAAGUGGCUGUCGUUAGACUGCC [G17U G35C C37U]	0.06
GGCAGAGCUCAACACAGGGUGGUAACGUGGCUGUGGCUAGAUUACC [C18G C23U A26C C42U G44A]	0.02
GGCAGAGCUCAACACAGGGUGGCCUAGUGGUUGUGGCUAGAGUCCC [C18G A24C A25U C31U C42G G44C]	0.01
GGCAGAGCUCAACACAGGGUGGCAACGUGGCUGUGGCAAGGCUGCC [C18G A26C U38A A41G]	0.04
GGCAGAGCUCAACACAGAGUGGCUACGUGGCUGUGGCUAGAAUGCC [C18A A24U A26C C42A]	0.22
GGCAGAGCUCAACACAUCGUGGCAAAGUGGCUGUUGGUAGACUGCC [G17U G35U C37G]	0.02
GGCAGAGCUCAACACAGAGUGGCAAAGUGGCUGUGGCUACACGGCC [C18A G40C U43G]	0.1
GGCAGAGCUCAACACAGAGUGGAAAAGUGGCUGUCGCUUGACUGCC [C18A C23A G35C A39U]	0
GGCAGAGCUCAACACAGAGUGGCAUAGUGGCAGUGGCUAGACUGCC [C18A A25U U32A]	0.04
GGCAGAGCUCAACACAGAUUGGCAAAGUGGCUGUGGCUAGACUGUC [C18A G19U C45U]	0.09
GGCAGAGCUCAACACAGAGUGGCAAAGUGGCUGCGGCUAGACUCCC [C18A U34C G44C]	0.07
GGCAGAGCUCAACACAGAGUGGCAAAGUGGCGGUGGCUAGAAUGUC [C18A U32G C42A C45U]	0.01
GGCAGAGCUCAACACAGGGUGGCGAAGUGGCUGUGGCUAGAAUGCC [C18G A24G C42A]	0.06

Variant	self-cleavage
GGCAGAGCUCAACACAGAGUGGCCAAUUGGCUGUGGCUAGACUGCC [C18A A24C G27U]	0
GGCAGAGCUCAACACAGAGUGGCAAAGUGGCUAUGGCUAGACCGCC [C18A G33A U43C]	0
GGCAGAGCUCAACACAUCGUGGCAAAGUGACUGUGGCGAGACUGCC [G17U G30A U38G]	0.01
GGCAGAGCUCAACACAGAGUGGCAAAGUUACUGUGGCUAGAGUGCC [C18A G29U G30A C42G]	0.29
GGCAGAGCUCAACACAGGGUGGCCAAGUGGCUGUGGGUAGACUGCC [C18G A24C C37G]	0.02
GGCAGAGCUCAACACAGACUGGCAAAGUGGCUGUGGCUAGACUGCG [C18A G19C C46G]	0.45
GGCAGAGCUCAACACAGAGUGGCAAAGUGGCUGUGGCUAUACUGCA [C18A G40U C46A]	0.03
GGCAGAGCUCAACACAGAAUGGCAAAGUGGCUUUGGCUAGACUGCC [C18A G19A G33U]	0.05
GGCAGAGCUCAACACAGAAUGGCAAAGUGGCUAUGGCUAGACUGCC [C18A G19A G33A]	0.09
GGCAGAGCUCAACACAGGGUGGCAAUUCGGCUGUGGCUAGACUGCC [C18G A26U G27U U28C]	0.1
GGCAGAGCUCAACACAGAGUGCCAAACUGGCUGUGGCUAGACUGCC [C18A G22C G27C]	0.18
GGCAGAGCUCAACACAUCGUGGCAAAGUGGCUGUGUCAAGACUUCC [G17U G36U U38A G44U]	0.27
GGCAGAGCUCAACACAGAGUGAUAAGGUGGCUGUAGCUAGACUGCC [C18A G22A C23U A26G G35A]	0.01
GGCAGAGCUCAACACAGAUUGGCAAAGUGGCUGUGGCUAGACCGCA [C18A G19U U43C C46A]	0.11
GGCAGAGCUCAACACAGAGUGGCAUAGUGGCUGAGGCUAGACUGCC [C18A A25U U34A]	0.03
GGCAGAGCUCAACACAGAAUAUCUAAGUGGCUGAGGCUAGACUGCC [C18A G19A G21A G22U A24U U34A]	0.04
GGCAGAGCUCAACACAGAGUGGCAAAGUCGCUGGGGCUAGACUGCC [C18A G29C U34G]	0.05
GGCAGAGCUCAACACAUCGUGGCAAAGUGGCUGUAGCUAGACUGCA [G17U G35A C46A]	0.02
GGCAGAGCUCAACACAGAGUGGCAAAGUGUCUGUGGCUAAACUGCC [C18A G30U G40A]	0.11

Variant	self-cleavage
GGCAGAGCUCAACACAGAGUGGCAAAGUGGUUAUUGCUAGACUCCC [C18A C31U G33A G35U G44C]	0.1
GGCAGAGCUCAACACAGAGUGGCGAUGUGGCUGUGGUGAGACUGCC [C18A A24G A26U C37U U38G]	0.02
GGCAGAGCUCAACACAUCGUGGCAAAGUGAACGUAGCUAGACUGAU [G17U G30A C31A U32C G35A C45A C46U]	0.01
GGCAGAGCUCAACACAGAGUGGGAAAUUGGCUGUGGCUAGACUGCG [C18A C23G G27U C46G]	0.64
GGCAGAGCUCAACACAGGGUGGCAAUGUGGCUGUGGCUAGACAGCC [C18G A26U U43A]	0.04
GGCAGAGCUCAACACAUCGUGGCAAAGUGUCUGUGGCUUGACUGCC [G17U G30U A39U]	0.07
GGCAGAGCUCAACACAGAGUGGCAGAGUGGUUGUGGCUAGACUGCC [C18A A25G C31U]	0.04
GGCAGAGCUCAACACAGAGUCGCAAAGUGGCUGUGUCUAGACUGCC [C18A G21C G36U]	0.11
GGCAGAGCUCAACACAGAGUGGCAAAGUAGCUGUGGCUAGUCUGCC [C18A G29A A41U]	0.08
GGCAGAGCUCAACACAGAGUGGCAAAGGGGAUGGGGCUAGACUGCC [C18A U28G C31A U34G]	0.03
GGCAGAGCUCAACACAGAGUGGCAGAGUGCCUGUGGCUAGACUGCC [C18A A25G G30C]	0.11
GGCAGAGCUCAACACAGAGCGGCGAAGUGGCUGUGGCUAGAAUGCC [C18A U20C A24G C42A]	0.02
GGCAGAGCUCAACACAGGGUGGCAAGGUGGCUGUGGCUAGACAGCC [C18G A26G U43A]	0.06
GGCAGAGCUCAACACAGGGUGGCAAGGUGGCUCUGGCUAGACUGCC [C18G A26G G33C]	0.01
GGCAGAGCUCAACACAGAGUGGCAAAGUUGCUGUGGCGAGACUGCC [C18A G29U U38G]	0.04
GGCAGAGCUCAACACAGAGUGGCAAAGAGGCCGUGGAUAGAUUGCC [C18A U28A U32C C37A C42U]	0
GGCAGAGCUCAACACAGAGUGGCAAAGUGCCUCUGGCUAGACUGCC [C18A G30C G33C]	0.07
GGCAGAGCUCAACACAGAGUGACAAAGUGGCUAAGGCUAGACUGCC [C18A G22A G33A U34A]	0.04
